Data taken from PubChem BioAssay AID488969 (Vanderbilt High Throughput Screening Facility, 2010).
The full ranking holds about 110,000 compounds; the median of “z-score” is about -0.1, and the highest 2% start at about 2. The list shows a part of the results. Active and inactive are the calls of the source.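 The calls were made as follows: active = z-score in the third read window above 3 or below -3; inactive = the rest.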

Each compound was assayed against Metabotropic glutamate receptor 8 (Rattus norvegicus) (UniProt P70579) (assay: rat mGluR8 modulators via GIRK flux, primary screen, cell-based, thallium flux, HTS (AID 488969)). Conditions: HEK293 rat mGluR8, GIRK (G protein-gated inwardly rectifying potassium channel) thallium flux, FluoZin2; at 10 µM; stronger effect = higher value; submaximal glutamate (EC20) added with thallium.
Sequence of UniProt P70579 (P70579 whole entry, looked up): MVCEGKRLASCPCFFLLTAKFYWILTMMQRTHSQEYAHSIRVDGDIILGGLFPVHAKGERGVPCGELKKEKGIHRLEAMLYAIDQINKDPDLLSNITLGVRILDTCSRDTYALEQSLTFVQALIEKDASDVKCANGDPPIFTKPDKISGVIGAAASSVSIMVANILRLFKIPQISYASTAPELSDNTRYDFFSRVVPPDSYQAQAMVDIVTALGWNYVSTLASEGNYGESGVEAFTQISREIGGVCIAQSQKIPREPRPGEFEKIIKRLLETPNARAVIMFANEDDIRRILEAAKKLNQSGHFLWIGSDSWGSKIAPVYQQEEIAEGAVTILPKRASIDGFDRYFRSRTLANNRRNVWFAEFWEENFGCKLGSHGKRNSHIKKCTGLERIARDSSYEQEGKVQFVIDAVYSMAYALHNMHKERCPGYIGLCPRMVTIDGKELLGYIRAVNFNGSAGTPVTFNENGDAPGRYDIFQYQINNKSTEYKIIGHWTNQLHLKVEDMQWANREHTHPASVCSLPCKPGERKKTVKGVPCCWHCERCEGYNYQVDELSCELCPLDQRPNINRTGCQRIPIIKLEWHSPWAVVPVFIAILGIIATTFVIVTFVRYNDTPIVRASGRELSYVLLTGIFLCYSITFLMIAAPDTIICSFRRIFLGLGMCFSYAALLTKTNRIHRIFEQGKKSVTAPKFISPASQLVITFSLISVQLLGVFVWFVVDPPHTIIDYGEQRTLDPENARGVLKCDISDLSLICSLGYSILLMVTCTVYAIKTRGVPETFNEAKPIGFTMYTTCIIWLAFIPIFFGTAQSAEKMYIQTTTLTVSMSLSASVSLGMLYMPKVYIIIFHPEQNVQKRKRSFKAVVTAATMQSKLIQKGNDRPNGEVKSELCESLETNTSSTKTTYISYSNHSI

SMILES	z-score
Cc1ccc2cccc(SCC(=O)NCC#N)c2n1	-0.021
c1cncc(C2Nc3ccccc3-c3nc4ccccc4n32)c1 (stereo not given)	-0.101
COc1ccc(-c2cc(-c3cc(OC)ccc3O)[nH]n2)cc1	-0.827
Cc1ccc(NC(=S)NN(C)c2nc(C)cnc2C)cc1	-1.53
CC(=O)c1c(C)[nH]c(C(=O)OCC(=O)Nc2cc(S(=O)(=O)N3CCCCC3)ccc2C)c1C	-2.23
COC(=O)NNC(=S)Nc1cc(OC)ccc1OC	0.0557
CCCCn1c(N)c(N(CC(C)C)C(=O)CN(C)Cc2cccc(OC)c2)c(=O)[nH]c1=O	-0.111
NC(=O)C1CCN(C2=C(Cl)C(=O)c3ccccc3C2=O)CC1	-0.0578
Cc1ccc(C(C(=O)NCc2ccccc2)N(C(=O)c2csnn2)c2cccc3ccccc23)o1 (stereo not given)	-0.574
C/C=C/c1ccc(OCCN2C(=O)NC(C)(C)C2=O)c(OC)c1	-1.35
CCCC1NC(=O)NC(C)=C1C(=O)OCC (stereo not given)	-0.0813
CCOC(=O)c1oc2ccccc2c1NC(=O)c1cc(OC)cc(OC)c1	-0.262
CC1(C)CC(=O)C(C=NCCN2CCN(C(=S)Nc3ccccc3)CC2)=C(O)C1	-0.182
CCNC(=O)NC(=O)C(C)OC(=O)C1CCN(S(=O)(=O)c2ccccc2F)CC1 (stereo not given)	-0.363
Brc1ccc(C2C3=C(Nc4ncnn42)c2ccccc2OC3c2ccncc2)cc1 (stereo not given)	-1.24
Cc1ccc(Nc2nc(-c3c(C)n(C)n(-c4ccccc4)c3=O)c(C)s2)cc1	-0.615
CCN1C(=O)S/C(=C/c2ccsc2)C1=O	0.669
Cc1cc(C(=O)NC(C)C)on1	0.124
Cn1c(=O)c(=O)n(C)c2cc(S(=O)(=O)N3CCc4ccccc43)ccc21	0.0327
Cc1cccc(NC(=O)c2ccoc2C)n1	2.35
COc1ccc(-n2c(SCc3ccc(C#N)cc3)nnc2-c2ccccn2)cc1	0.181
COc1ccc(Nc2ccc(Cl)cc2)c(C(=O)O)c1	-0.637

SMILES	z-score
N#Cc1c(C(F)(F)F)cc(-c2ccco2)nc1SCc1ccccn1	-0.0872
CCOC(=O)CCCSc1nnc(CCCCCN2C(=O)c3cccc4cccc(c34)C2=O)o1	-1.11
COc1ccc(S(=O)(=O)N2CC(O)CC2C(=O)OCC(=O)Nc2ccc(Cl)cn2)cc1 (stereo not given)	0.891
COc1ccccc1CNC(=O)c1cnccn1	-0.181
COc1ccc(OCC(O)CN(CCO)CC(O)Cn2ccc3ccccc32)cc1 (stereo not given)	-0.128
CCn1c(SCC(=O)N/N=C/c2ccc(C)o2)nnc1-c1ccccc1	0.156
Cc1ccc(S(=O)(=O)N(C)C)cc1NC(=S)NC12CC3CC(CC(C3)C1)C2	0.0243
COc1ccc(-c2nc(=S)c3c([nH]2)Oc2ccc(C)cc2C3)cc1O	0.755
COc1ccc(CN(Cc2cccnc2)C(=S)NCCc2ccccc2)cc1OC	-1.03
Cc1cc(C(=O)NC(C)c2ccncc2)cs1 (stereo not given)	2.05
O=C(Nc1cccc2ccccc12)c1ccc(OC(=S)N2CCOCC2)cc1	-0.204
COc1ccc(OC)c(NC(=O)C2CCN(S(C)(=O)=O)CC2)c1	-0.441
c1ccc2c(c1)nc(NC1CCCCC1)c1nncn12	0.0884
Cc1cccc(Oc2ccc(N)cc2)c1	-0.0211
N#C/C(=C\c1sc(N2CCOCC2)nc1-c1ccccc1)C(=O)Nc1cccc2ccccc12	active: -3.04
C=CCn1c(SCc2nnc(-c3ccccc3)o2)nnc1C(O)c1ccccc1 (stereo not given)	0.141
Nc1nc(NCCCN2CCOCC2)nc(Nc2ccc(F)cc2)c1[N+](=O)[O-]	-0.105
CNCc1cn2cc(Cl)ccc2n1	-0.33
Cn1c(=O)c2c(nc(Br)n2CCSc2ncccn2)n(C)c1=O	-0.0624
C=CCOc1c2ccc(C(=O)NC3CCCc4ccccc43)cc2nn1C (stereo not given)	-0.212
COc1ccc(CCNC(=O)C2CCN(C(=O)N(C)C)CC2)cc1OC	0.665
Cc1ccccc1NC(=O)CSCCO	0.29

SMILES	z-score
COc1ccccc1-c1coc2cc(O)cc(O)c2c1=O	-0.515
COCCN(C(=O)CSc1nnc(C)n1-c1ccccc1)c1c(N)n(Cc2ccccc2)c(=O)[nH]c1=O	-0.00751
O=C(c1cc(-c2cccs2)on1)N1CCN(c2ccccc2)CC1	-0.51
CCOC(=O)c1c2ccc(OCC(=O)N/N=C/c3ccc(C)cc3)cc2n2ccccc12	-0.78
CC(C)(C)OC(=O)N1CCC(c2cc(=O)n3[nH]cc(C(=O)NC4CCCC4)c3n2)CC1	0.106
Cc1ccc(-c2n[nH]c3c2CCC3)cc1	-0.294
Cn1c(NC(=O)c2cc(Cl)ccc2Cl)cc(=O)n(C)c1=O	0.0537
O=C(C1CC1)N1CCc2cc(S(=O)(=O)NCCC3=CCCCC3)ccc21	-0.325
CCCOc1ccc(C(=O)N2CCN(c3ccc(N)cc3Cl)CC2)cc1	-0.235
COc1ccc(CNc2nc(NCc3ccc(OC)cc3)n(C(=O)c3ccccc3[N+](=O)[O-])n2)cc1	-0.0563
C=CCN(CC=C)C(=O)Nc1cc(Cl)ccc1OC	-0.919
Cc1ccc(C(=O)NCCN2CCOCC2)cc1	-0.0596
COC(=O)c1ccc(COC(=O)c2c(C)nn(Cc3ccccc3Cl)c2Cl)o1	-0.729
Cc1ccc(-n2nnnc2SCC(=O)N2CCc3ccccc3C2)cc1	-0.883
CCOc1ccc(N/C=C/C(=O)c2ccccc2)c([N+](=O)[O-])c1	-0.186
Cc1ccc(S(=O)(=O)NC(=O)Nc2ccccc2F)cc1	0.149
CCCSc1nc(N)nc(-c2cccs2)c1C#N	-0.712
CCOC(=O)c1sc(N)c(C#N)c1COC(=O)CNC(=O)c1cc(OC)c(OC)c(OC)c1	-1.23
CCn1c(C(=O)OC)cc2c1ccn2-c1ccc(F)cc1	0.12
Cc1cccc(N(CC(=O)NC2CCCC2)C(=O)c2c(C)noc2C)c1	0.0556
O=C(O)C1CCCCC1C(=O)NCc1cn2ccccc2n1 (stereo not given)	-0.352
Cc1ccc(NC(=O)Cn2cccc2C2=NC(c3ccccc3)CO2)cc1C (stereo not given)	-0.458

SMILES	z-score
CCOC(=O)C1C(=O)NC(SCC(=O)Nc2nccs2)=C(C#N)C1c1ccccc1OCC (stereo not given)	-1.14
COCCn1c(SCc2nnc(-c3ccccc3)o2)nc2sc3c(c2c1=O)CCC3	-1.02
CCN(CC)S(=O)(=O)c1cc(C)c(C)cc1Br	0.329
CCn1c(=O)c(C(=O)Nc2ccsc2C(=O)OC)c(O)c2ccccc21	-0.168
Cc1cc(C)c(C#N)c(N2CCCC(C(N)=O)C2)n1 (stereo not given)	-0.414
CCCCn1c(=O)cc(N2CCOCC2)[nH]c1=O	-0.607
CCOC(=O)N1CCc2c(sc3nc4n(c(=O)c23)N=C(C)CS4)C1	-0.131
O=S(=O)(NCCn1ccc2ccccc21)c1ccccc1	0.0225
CSCCC(NC(N)=O)C(=O)NCc1cccc(Cl)c1 (stereo not given)	-0.285
Cn1c(CNc2ccc(Cl)cc2)nnc1SCc1ccccc1	-0.839
CSc1c(-c2ccccc2)nc2ccc(Cl)cc2c1C(=O)O	-0.78
Cc1ccc(NC(=O)CSc2nnc(-c3n[nH]c4ccccc34)n2-c2ccccc2)c(C)c1	-0.139
COc1ccc(-c2[nH]ncc2-c2ccc(Cl)cc2)c(O)c1	1.54
CCOc1ccc(C2C(C(=O)c3ccc(C)o3)=C(O)C(=O)N2CCN2CCOCC2)cc1OC (stereo not given)	0.446
CCOc1ccc(-c2cc(C(=O)Nc3ccc4c(c3)OCCO4)c3ccccc3n2)cc1	-0.168
COc1ccccc1CCNS(=O)(=O)c1c(C)n(C)c(=O)n(C)c1=O	-0.106
CCOC(=O)c1ccc(NCc2nc3ccccc3[nH]2)cc1	0.255
CN(CC(O)COc1ccc(S(=O)(=O)N2CCOCC2)cc1)C1CCCCC1 (stereo not given)	0.287
Cc1ccc(-n2nnc3c(=O)n(CC(=O)N4CCOCC4)cnc32)cc1	0.142
CCCS(=O)(=O)c1c(S(=O)(=O)CCC)c2c(C)cccn2c1C(N)=O	-0.316
COc1ccccc1N1CCN(C(=O)CSc2ncnc3scc(-c4ccccc4)c23)CC1	-0.253
O=C(Nc1ccc(Cl)cc1)c1ccc(-n2cccn2)c([N+](=O)[O-])c1	-0.308

SMILES	z-score
Brc1ccc(-c2ccc(/C=N/Nc3nncc(-c4ccccc4)n3)o2)cc1	-0.232
O=C(OCCN1CCOCC1)c1ccc(OCCN2CCOCC2)cc1	-0.22
CCCC1=NN2C(=N)/C(=C\c3ccc(SCc4ccco4)o3)C(=O)N=C2S1	1.03
Cc1cc(C)c2c(c1)/C(=C/C(=O)c1ccc(Br)s1)C(=O)N2	-0.0431
COc1ccc(S(=O)(=O)N(CC(=O)N2CCOCC2)Cc2ccccc2)cc1	-0.204
COc1ccc(OCC(=O)Nc2cccc(OC)c2)cc1	-0.532
CC1CCCCC1NC(=O)COC(=O)c1ccc(N(C)C)cc1 (stereo not given)	-0.0376
O=C(Nc1ccc2nc(-c3cccs3)c(-c3cccs3)nc2c1)NC1CC1	0.266
CCOc1[nH]n(-c2ccc(Cl)cc2)c(=O)c1C=Nc1ccc(Cl)cc1	active: 3.26
COC(CNC(=O)c1ccc2c(c1)nc(C)n2-c1ccc(F)c(F)c1)OC	0.161
CC(=O)Nc1nc(C2COc3ccccc3O2)cs1 (stereo not given)	-0.0872
N#Cc1cc([N+](=O)[O-])cnc1NCC(O)CO (stereo not given)	0.388
COc1cc(CNCc2cccs2)ccc1OCC(=O)NC(C)(C)C	-0.0291
Cc1ccc(CC2CC(=O)N(c3cc(C)on3)C2=O)cc1 (stereo not given)	-0.0692
O=C(CN1C(=O)/C(=C/c2cccc(Br)c2)SC1=S)N1CCCC1	-0.0262
CC(C)(C)OC(=O)N1CCOCCOCCNCCOCCOCC1	0.511
COC(=O)c1c(C)[nH]c(C(=O)OCC(=O)NCC(C)C)c1C	-0.00108
COC(=O)C(NC(=O)c1ccccc1C)(Nc1ncc(S(=O)(=O)c2ccc([N+](=O)[O-])cc2)s1)C(F)(F)F (stereo not given)	-0.339
COc1ccc(C2CC(c3ccccc3)=NN2c2ccc(/C=N/NC(=O)c3ccncc3)cc2)cc1 (stereo not given)	-0.0709
O=C(CSc1nnc(-c2ccccc2O)n1Cc1ccccc1)NNC(=O)c1ccccc1O	-0.644
CCCc1ccc(OC(=O)c2cccs2)cc1	0.371
CC(C)Nc1nc(NC(C)C)nc(N(C#N)CCOc2ccc(Cl)cc2Cl)n1	-0.569
